Experimental data taken from US20220125947A1.
Blank lines part the entries; values can stand above or below the binder they belong to.

Biological target: T cell receptor (TCR) Vγ9 (TRGV9) (human), Q99603
Test: cell-based or functional assay

Sequence of T cell receptor (TCR) Vγ9 (TRGV9) (human), Q99603 (Q99603 21-122): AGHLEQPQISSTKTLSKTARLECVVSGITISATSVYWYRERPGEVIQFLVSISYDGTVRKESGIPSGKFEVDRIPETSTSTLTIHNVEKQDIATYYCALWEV

CD25+ (Vg9+ cells): 16.4% | CD71+ (Vg9+ cells): 73.4% | Granzyme B (Luminex, supernatant): 305 | IFNγ (Luminex, supernatant): 36 | IL6 (Luminex, supernatant): 94 | TNFα (Luminex, supernatant): 192 | Vg9 T cell %: 3.6%
B1: VG9B129 (antibody, human IgG1, kappa)
heavy: EVQLVQSGAEVKKPGSSVKVSCKASGGTFSSYVISWVRQAPGQGLEWMGGILPILSTANYAQKFQGRVTITADKSTSTAYMELSSLRSEDTAVYYCARAHDYYYGMDVWGQGTTVTVSS[human IgG1 constant region omitted here]
light: [about 100 residues omitted here][about 120 residues omitted here]

CD25+ (Vg9+ cells): 36.6% | CD71+ (Vg9+ cells): 97.4% | Granzyme B (Luminex, supernatant): 4850 | IFNγ (Luminex, supernatant): 1240 | IL6 (Luminex, supernatant): 304 | TNFα (Luminex, supernatant): 3960 | Vg9 T cell %: 9.6%
B2: VG9B128 (antibody, human IgG1, kappa)
heavy: EVQLVESGGGVVQPGKSLRLSCTASGFTFGTYGMHWVRQAPGKGLDWVAVIWYNGSNKYYADSVKGRFTISRDNSKNTLYLQMNSLRTEDTAVYYCARGGFGESFDSWGQGTLVTVSS[human IgG1 constant region omitted here]
light: DIVMTQTPATLSLSPGERATLSCRASQSVIDYLAWFQQKPGQAPRLLIYDASNRATGIPARFSGSGSGTDFTLTISSLEPEDFAVYYCQQRSNWPLTFGGGTKVEIKRTVAAPSVFIFPPSDEQLKSGTASVVCLLNNFYPREAKVQWKVDNALQSGNSQESVTEQDSKDSTYSLSSTLTLSKADYEKHKVYACEVTHQGLSSPVTKSFNRGEC
